Among the data in PubChem BioAssay AID1240 (Sanford-Burnham Center for Chemical Genomics, 2008) are displacement values, retold here.

Molecules are shown by their SMILES. Screen size: about 50,000 compounds; about 800 (1.6%) showed an effect of 50% or more. This is one part of the list.

For this experiment, the target named is Bcl-2-like protein 10 (Homo sapiens) (UniProt Q9HD36). In words: Phenotype converters, Bcl-B/TR3 peptide binding displacement, primary biochemical FP (AID 1240).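 Further: 0% = Bcl-B with tracer peptide and DMSO and 100% = tracer peptide lacking Bcl-B.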 The following applies: GST-Bcl-B / FITC-TR3 peptide fluorescence polarization; stronger effect = higher value; compound at 3.75 mg/L. A general note: Fluorescence polarisation rises when a labelled molecule tumbles more slowly, as on binding a larger partner.
UniProt Q9HD36, sequence (Q9HD36 whole entry, looked up): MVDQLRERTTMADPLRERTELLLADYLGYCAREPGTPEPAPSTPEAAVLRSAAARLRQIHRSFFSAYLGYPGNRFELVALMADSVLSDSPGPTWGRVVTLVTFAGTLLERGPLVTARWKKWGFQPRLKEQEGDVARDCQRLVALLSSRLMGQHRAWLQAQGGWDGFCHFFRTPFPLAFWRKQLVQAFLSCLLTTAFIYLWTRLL
For `COc1ccc2c(c1)C(C)CC(C)(C)N2C(=O)NC1CCCCC1` (stereo unspecified), the displacement is 8%.
As for `CCOc1ccc(-n2sc3c(c2=S)-c2cc(C)cc(C)c2NC3(C)C)cc1`, the displacement is -3.8%.
As for `O=C(/C=C/Nc1ccccc1O)c1ccc(-c2ccccc2)cc1`, the displacement stood at 3.7%.
Take `Cc1ccc(/C=N/NC(=O)COc2c(Br)cc(Br)cc2Br)cc1`: the displacement is 1.8%.
In the case of `COc1ccccc1NC(=O)C1=C(C)NC(=O)NC1c1cc(OC)c(OC)c(OC)c1` (stereo unspecified) it was 3.6%; in that of `O=C(c1nn2c(c1Cl)NC(c1ccc(Cl)cc1)CC2C(F)(F)F)N1CCN(c2ccccc2)CC1` (stereo unspecified), 39.1%; in that of `COc1ccccc1NC(=O)/C(=C/c1ccco1)NC(=O)c1ccc(C)cc1`, -5%.
In the case of `O=[N+]([O-])c1cccc(-c2ncnn2-c2ccccc2)c1` it was 6.3%; in that of `O=C(Nc1cccc(-c2nc3ccccc3o2)c1)c1cc2ccccc2o1`, 0.8%.
Take `Cc1ccnc(NS(=O)(=O)c2ccc(N3C(=O)c4ccccc4C3=O)cc2)n1`: the displacement was determined as 14.1%.
In the case of `O=[N+]([O-])c1cccc(-c2ccc(CO)o2)c1`, the displacement was found to be 7.1%.
As to `CCCOc1ccc(C(=O)Nc2ccccc2C(=O)OC)cc1`, the displacement was determined as 11.8%.
Take `Cc1ccc(CNC(=O)/C=C/c2ccccc2)cc1`: the displacement turned out to be 4%.
Consider `CC(=O)NS(=O)(=O)c1ccc(NC(=O)c2ccc([N+](=O)[O-])c(C)c2)cc1`, for which the displacement was -8.5%.
As to `CC1=C(C(=O)OC(C)C)C(c2ccccc2)C2=C(CCCC2=O)N1` (stereo unspecified), the displacement was determined as 4.2%.
In the case of `C=CCn1c2ccccc2c2nnc(SC)nc21`, the displacement came out at 0.3%.
`O=C1OC(c2ccc(-c3ccccc3)cc2)c2ccccc21` (stereo unspecified): the displacement was -7.4%.
In the case of `CCCCOc1ccc(-c2nc(C3CCCCC3)no2)cc1`, the displacement was determined as 13.5%.
With `CC1=NN(c2cccc(C(=O)O)c2)C(=O)/C1=C\c1ccc(N(C)C)cc1`, the displacement stood at 0.7%.
In the case of `COc1cccc(NC(=O)c2sc3ccccc3c2Cl)c1`, the displacement came to 1%.
As for `CC(C)NC(=O)C1CC1(c1ccccc1)c1ccccc1` (stereo unspecified), the displacement was determined as 4.7%.
Take `C=CCc1ccc(OCCCCN2CCC(C)CC2)c(OC)c1`: the displacement is 13.8%.
In the case of `O=C(COc1ccc(F)cc1)NC(C(=O)O)C12CC3CC(CC(C3)C1)C2` (stereo unspecified) it was -12.9%; in that of `CC1CCN(S(=O)(=O)c2ccc(NC(=O)c3ccc(-c4ccccc4)cc3)cc2)CC1`, -1.5%; in that of `CO/C(=N\S(=O)(=O)c1ccc(Cl)cc1)c1ccccc1`, 11.1%.
On to `COc1ccc(CC(=O)Nc2ccc(-c3ccc(NC(=O)Cc4ccc(OC)cc4)c(OC)c3)cc2OC)cc1`, for which the displacement is -9.2%.
In the case of `O=C(Nc1ccc(OC(F)(F)F)cc1)c1cccc(Br)c1` it was -2.2%; in that of `CCn1c(/C=N/NC(=O)c2ccccc2)nc2ccccc21`, 7.2%.
Consider `CC(=O)c1cccc(NC(=O)/C(=C/c2ccc(Br)cc2)NC(=O)c2ccccc2)c1`, for which the displacement is -5.8%.
For the compound `Cc1cccc(C(=O)Oc2ccc(/C=C3/N=C(c4ccccc4)OC3=O)cc2)c1`, the displacement amounted to 0.5%.
`O=c1[nH][nH]c(=O)c2cc(Oc3ccc([N+](=O)[O-])cc3)ccc12`: the displacement was determined as 3.2%.
`COc1ccc(C(=O)CSc2nc(C)cc(C)n2)cc1`: the displacement stood at 10.5%.
For `O=C(Nc1ccc(S(=O)(=O)Nc2nccs2)cc1)C1CC1`, the displacement was -5.1%.
In the case of `CCN(CC)c1ccc(/C=C2/C(=O)NN(c3ccccc3)C2=O)cc1` it was 13%; in that of `COC(=O)c1ccccc1NC(=S)NC(=O)c1ccc(Cl)cc1`, -1.9%; in that of `O=C(Nc1ccc2c(c1Cl)C(=O)c1ccccc1C2=O)c1ccccc1`, 3.9%.
On to `Cc1cc(Cl)ccc1OC(=O)CCN1C(=O)c2ccccc2C1=O`, for which the displacement was found to be 9.2%.
Take `COc1ccc(N2C(=O)NC(=O)/C(=C\c3ccc(C)cc3)C2=O)cc1`: the displacement is -6%.
In the case of `COC(=O)C(=C/C(Cl)=C/N(C)C)C(=O)OC` it was 13%; in that of `OC(COCc1ccccc1)CN1CCN(c2ccc(F)cc2)CC1` (stereo unspecified), 6.9%; in that of `COc1cc(C2C(C(=O)/C=C/c3ccccc3)=C(O)C(=O)N2c2ccccc2)ccc1O` (stereo unspecified), -3.3%.
Take `O=C(N/N=C/c1ccncc1)c1c[nH]c2ccccc12`: the displacement was 5.7%.
In the case of `N/C(=N\OC(=O)c1ccccc1F)c1ccc(Cl)cc1`, the displacement was determined as 9.6%.
In the case of `CCC(C)N=CC1=C(O)C(C(=O)OC)C(C)(C)CC1=O` (stereo unspecified), the displacement worked out at 1.4%.
For the compound `CC1=C(C(=O)Nc2cc(Cl)ccc2C)C(c2ccc(Br)cc2)NC(=O)N1` (stereo unspecified), the displacement amounted to 12.6%.
In the case of `Oc1ccc(Br)cc1CN1CCN(Cc2ccccc2C(F)(F)F)CC1` it was 11.6%; in that of `Cc1ccccc1OCCOc1cccc(/C=C2/SC(=S)N(C)C2=O)c1`, 1.2%.
For `C=CCN1C(=O)/C(=C\c2ccccc2C)SC1=S`, the displacement was determined as 4.5%.
Take `COCCOC(=O)c1ccc(NC(=O)COc2ccc(Br)cc2)cc1`: the displacement is -6%.
In the case of `CCc1ccccc1N(CC(=O)Nc1ccc(C)c(C)c1)S(C)(=O)=O` it was 4.5%; in that of `Cc1cc(C)nc(NS(=O)(=O)c2ccc(N/C=C\C(=O)c3cccs3)cc2)n1`, 78.5%.
In the case of `CC1CC(CCN)(c2ccccc2)C(C)CN1C` (stereo unspecified) it was -6%.
As for `COC(=O)c1cc(C(=O)Nc2ccc(Br)c(C)c2)cc([N+](=O)[O-])c1`, the displacement is 4.6%.
Regarding `O=C1NC(=S)N(c2ccc(Cl)cc2)C(=O)/C1=C/c1ccc(-c2ccc(C(=O)O)cc2)o1`, the displacement is -9.2%.
For the compound `N[n+]1cnn(CC(=O)c2ccccc2Br)c1`, the displacement was 0.1%.
Take `Cc1sc(NC(=O)CN2CCOCC2)c(C(=O)c2ccccc2)c1C`: the displacement came out at 16.1%.
In the case of `O=C1CC(c2ccccc2)=NN1c1cccc([N+](=O)[O-])c1` it was 14.8%; in that of `O=C(O)CCCCCNS(=O)(=O)c1ccc2c(c1)OCCO2`, 9.8%.
In the case of `CCCC(=O)NNC(=O)c1ccccc1C` it was -5.7%; in that of `Cc1ccc(NC2CC(C)N(C(=O)c3cccc(F)c3)c3ccc(C)cc32)cc1` (stereo unspecified), -7.1%.
Regarding `CC1(C)CC(=O)C=C(Nc2ccc(O)cc2)C1`, the displacement worked out at 8.9%.
With `COCCCNC(=O)Cc1ccccc1[N+](=O)[O-]`, the displacement came to 1.6%.
As to `O=c1oc2ccc([N+](=O)[O-])cc2cc1-c1nc(-c2ccc(Br)cc2)cs1`, the displacement was -4.2%.
Regarding `COc1ccc(C2C(C#N)=C(N)OC3=C2C(=O)CC(c2ccccc2Cl)C3)cc1` (stereo unspecified), the displacement was -5.2%.
Take `O=C(NCCCn1ccnc1)Nc1ccc(Cl)c(Cl)c1`: the displacement is -2.5%.
`Cc1cccc(C(=O)NN2CCN(C)CC2)c1`: the displacement was -1%.
In the case of `COc1ccc(CN2CCN(Cc3ccccc3C(F)(F)F)CC2)cc1Br`, the displacement is 0.6%.
In the case of `C=CCN1C(=O)/C(=C\c2ccc(OCCOc3cccc(OC)c3)cc2)SC1=S` it was -1.8%.
With `O=C(/C=C/c1ccc([N+](=O)[O-])cc1)Nc1ccc(F)cc1`, the displacement was -2.7%.
`C/C(=N/NC(=O)c1ccccc1N)c1cccs1`: the displacement was -12.6%.
For `Cc1sccc1/C=N/NC(=O)C1CC1`, the displacement was 3%.
